Data reported in the supplement of paper PMC3334620.
The full ranking holds about 33,000 sequences; the median of “E-score (-0.5 to 0.5)” is about -0.035, and the highest 2% start at about 0.34. Some of the results follow.

What follows are sequences tested against T1, Mot3 (UniProt P54785) (assay: PBM E-score (8-mer binding enrichment) (E-score (-0.5 to 0.5)); higher = stronger / more preferred TF binding; most listed sequences are background and not binding sites). Settings: protein concentration: 200 nM; construct: GST-full length.
T1 sequence: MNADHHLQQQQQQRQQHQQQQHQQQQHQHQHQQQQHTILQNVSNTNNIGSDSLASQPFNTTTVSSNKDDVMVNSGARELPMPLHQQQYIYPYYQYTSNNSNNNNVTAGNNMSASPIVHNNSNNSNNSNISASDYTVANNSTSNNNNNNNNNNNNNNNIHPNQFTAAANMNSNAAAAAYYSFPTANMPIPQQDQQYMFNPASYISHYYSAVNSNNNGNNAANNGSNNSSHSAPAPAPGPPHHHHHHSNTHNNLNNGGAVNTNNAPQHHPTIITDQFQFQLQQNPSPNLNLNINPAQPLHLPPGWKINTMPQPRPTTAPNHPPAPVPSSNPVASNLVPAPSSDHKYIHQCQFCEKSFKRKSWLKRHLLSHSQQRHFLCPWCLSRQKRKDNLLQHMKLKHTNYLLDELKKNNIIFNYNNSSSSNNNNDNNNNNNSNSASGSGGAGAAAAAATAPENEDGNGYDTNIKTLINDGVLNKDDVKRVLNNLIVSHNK
Outline: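 The E-score, a modified Wilcoxon-Mann-Whitney statistic, was computed by the Universal PBM Analysis Suite for every ungapped eight-base word pooled with its reverse complement. Scans behind it were normalised with masliner after bound GST-tagged yeast transcription factors were detected with fluorescent anti-GST. The proteins, at about 100-200 nM, had been applied to universal all-10-mer Agilent arrays made double-stranded by primer extension.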

| Sequence | PBM E-score |
| --- | --- |
| CGGAGAAG | -0.113 |
| CCCACAAA | 0.0705 |
| GACTGGAA | -0.213 |
| AGTAAGAT | 0.00626 |
| CTCCTGGC | -0.191 |
| AACTCTCA | -0.203 |
| CAGTGGGA | -0.134 |
| GGGTTGGA | -0.124 |
| CATCAAAC | 0.119 |
| AGGTCCAC | -0.187 |
| CAAGAGGC | 0.021 |
| GATCTCTA | -0.137 |
| CCTTCGAC | 0.135 |
| CACGCTGC | 0.0891 |
| ACTTAACG | 0.141 |
| ATGTTCGC | -0.0477 |
| AAAGCGGT | 0.0633 |
| ATCTCGTC | -0.123 |
| CCACTGCG | -0.178 |
| AGCCCAAG | -0.331 |
| AAAATAGT | 0.0319 |
| AAATCTGT | 0.0619 |
| CAGTGTTC | -0.168 |
| CCTGATAC | 0.107 |
| ACAAGCGA | 0.0908 |

| Sequence | PBM E-score |
| --- | --- |
| GAGCGGCC | -0.336 |
| CGGTAGTA | 0.0794 |
| CCAGTCTA | -0.209 |
| GCTTGTGA | -0.00544 |
| CAATTATA | 0.155 |
| CGCCTTTA | 0.292 |
| AAATCTAC | 0.207 |
| ACGGGTGC | -0.244 |
| GCTGCCTA | 0.282 |
| CATGTTCC | 0.178 |
| GCGTGCTA | -0.185 |
| ATAGATGG | -0.0411 |
| CTGCTCTA | 0.00698 |
| CACCTATG | -0.0862 |
| ACCTGTCA | -0.0178 |
| CGGCACGA | 0.00099 |
| ACACCTAG | 0.0682 |
| ACACTGAC | 0.196 |
| ATTTGAAC | 0.133 |
| ATAAATCC | -0.187 |
| AACAAAGT | 0.204 |
| CCCGATTC | -0.0181 |
| CGCCGAGA | -0.2 |
| CGATACAC | 0.141 |
| CTTCGTCA | 0.0926 |

| Sequence | PBM E-score |
| --- | --- |
| CCCGCCAC | -0.168 |
| AAAGGGCG | 0.0811 |
| TACGCCAA | -0.142 |
| AATATATG | 0.157 |
| GATCTAAC | -0.0815 |
| AATTTTCT | -0.131 |
| AACAGTCT | -0.0693 |
| ACACGGGC | 0.259 |
| AGTACTCC | -0.0724 |
| CGTCAGCA | -0.00088 |
| AACGAACC | -0.099 |
| TACAGTCA | 0.191 |
| AACCAATA | 0.105 |
| AAGTGTTG | 0.129 |
| CCCCTCCG | -0.0718 |
| TGAGAGCA | -0.0546 |
| ACAGCGAA | -0.0596 |
| ATCATTAA | 0.117 |
| CCAGTTGC | -0.163 |
| TGCCCCCA | -0.19 |
| AATCAATA | 0.0382 |
| CATTGGGA | -0.162 |
| GATCCATC | -0.202 |
| CATCAGCA | 0.0307 |
| CGTGGCTA | -0.0939 |

| Sequence | PBM E-score |
| --- | --- |
| ACCGTTCG | -0.136 |
| CCCCGGTC | -0.403 |
| ACGAAGAC | -0.218 |
| CGCTCTGA | -0.118 |
| AGTCAAGG | 0.0995 |
| ACACTTAC | 0.188 |
| GCTCGAAC | 0.00705 |
| ACGCAATA | 0.233 |
| GATGGTCC | -0.0829 |
| CCAGGACA | -0.0658 |
| TATGTTGA | 0.274 |
| GACGTCCA | -0.139 |
| GCGAGGAA | -0.0677 |
| GGCTCCAC | -0.0243 |
| AAACTTGT | 0.19 |
| CGATCTCA | -0.168 |
| GGGCCGAA | -0.232 |
| ATCCGCAT | -0.169 |
| CTAGAACC | -0.0352 |
| ACGTTCTG | -0.0537 |
| ACATTGCA | 0.0621 |
| CATGAAGC | -0.00504 |
| AACGCCCG | -0.172 |
| CCCCGAGG | -0.0759 |
| CGGTTAGA | -0.296 |

| Sequence | PBM E-score |
| --- | --- |
| CGTACGTC | 0.00931 |
| AAATAGAC | -0.133 |
| GTACCATA | 0.0521 |
| AGAGGTTG | -0.223 |
| CCGTCCGC | -0.167 |
| GATGAGAA | -0.137 |
| AAGCAACA | 0.151 |
| CAGGGTGC | -0.0572 |
| ATAAAGCG | 0.038 |
| AGTTCGCG | -0.0658 |
| ACTCACAC | -0.183 |
| AACAGAGG | 0.0836 |
| GTCCAAAC | -0.263 |
| ATGGTTGG | -0.25 |
| AGTAATGG | 0.0543 |
| GAACCTTA | 0.0894 |
| ATTTCGTG | 0.149 |
| AGGACCCG | -0.162 |
| GCAGGGAA | -0.0328 |
| CTTGTAAA | 0.378 |
| CGCCAACA | -0.0349 |
| CTTCTACA | 0.258 |
| GGGGAGGA | -0.263 |
| AAAACCGT | 0.186 |
| AGCTTCCT | 0.018 |

| Sequence | PBM E-score |
| --- | --- |
| AATCGGAA | 0.0377 |
| CAGTAGTA | 0.181 |
| GAGTATCA | -0.116 |
| TCGCATCA | -0.242 |
| ATGATCAG | -0.163 |
| ACAATTCT | 0.117 |
| AAGTGCTC | -0.203 |
| CTCAGTGA | -0.0788 |
| GCTGTAGA | 0.0495 |
| ACCACCAA | -0.249 |
| ATGTGAAA | 0.0925 |
| CAGCCCTA | 0.124 |
| AATATATA | 0.0998 |
| ATTTGTAA | 0.244 |
| TCGTCCCA | -0.188 |
| ATAGCCGA | -0.0322 |
| AACGCAGT | -0.0115 |
| CTAACAGC | -0.149 |
| GGGATCTA | -0.0653 |
| GGGTTCAC | -0.292 |
| GAGTATCC | -0.222 |
| ATGCTGTA | 0.15 |
| CATAGACC | -0.0425 |
| AACCCGAG | -0.163 |
| CTCGCCGC | -0.0814 |

| Sequence | PBM E-score |
| --- | --- |
| CGTAGAGA | -0.0324 |
| GCCCTCAA | -0.11 |
| CTGTCGTA | 0.145 |
| ACCGGAGA | -0.19 |
| GGTCCCTA | -0.0611 |
| CGATATAC | -0.0314 |
| CGCGTTGA | 0.256 |
| CCGAAGAC | -0.306 |
| GGAAGCCC | -0.357 |
| ATCCAGGC | -0.0601 |
| CTCTAGCC | -0.163 |
| CAATTCGC | -0.00079 |
| GTAAGAGA | 0.0699 |
| CTGGGTTC | -0.0708 |
| AGGAGACA | 0.0581 |
| ACCTTTAT | 0.0883 |
| GCGTACCC | -0.197 |
| GTAGGTTA | 0.22 |
| GTCTAAGA | 0.0261 |
| GGCGGAGA | -0.166 |
| GCATCGGC | -0.132 |
| ATCCACGC | -0.101 |
